{"source": "paper PMC4336329", "about": "(PLoS ONE, 2015)", "note": "In all, about 310,000 compounds went through this assay and about 2,200 (0.71%) showed an effect of 50% or more. Effects have a minus sign here. The list shows a part of the results.", "data": [{"target": "human ether-à-go-go-related gene (hERG) potassium channel (human, UniProt Q12809)", "sequence (Q12809 whole entry, looked up)": "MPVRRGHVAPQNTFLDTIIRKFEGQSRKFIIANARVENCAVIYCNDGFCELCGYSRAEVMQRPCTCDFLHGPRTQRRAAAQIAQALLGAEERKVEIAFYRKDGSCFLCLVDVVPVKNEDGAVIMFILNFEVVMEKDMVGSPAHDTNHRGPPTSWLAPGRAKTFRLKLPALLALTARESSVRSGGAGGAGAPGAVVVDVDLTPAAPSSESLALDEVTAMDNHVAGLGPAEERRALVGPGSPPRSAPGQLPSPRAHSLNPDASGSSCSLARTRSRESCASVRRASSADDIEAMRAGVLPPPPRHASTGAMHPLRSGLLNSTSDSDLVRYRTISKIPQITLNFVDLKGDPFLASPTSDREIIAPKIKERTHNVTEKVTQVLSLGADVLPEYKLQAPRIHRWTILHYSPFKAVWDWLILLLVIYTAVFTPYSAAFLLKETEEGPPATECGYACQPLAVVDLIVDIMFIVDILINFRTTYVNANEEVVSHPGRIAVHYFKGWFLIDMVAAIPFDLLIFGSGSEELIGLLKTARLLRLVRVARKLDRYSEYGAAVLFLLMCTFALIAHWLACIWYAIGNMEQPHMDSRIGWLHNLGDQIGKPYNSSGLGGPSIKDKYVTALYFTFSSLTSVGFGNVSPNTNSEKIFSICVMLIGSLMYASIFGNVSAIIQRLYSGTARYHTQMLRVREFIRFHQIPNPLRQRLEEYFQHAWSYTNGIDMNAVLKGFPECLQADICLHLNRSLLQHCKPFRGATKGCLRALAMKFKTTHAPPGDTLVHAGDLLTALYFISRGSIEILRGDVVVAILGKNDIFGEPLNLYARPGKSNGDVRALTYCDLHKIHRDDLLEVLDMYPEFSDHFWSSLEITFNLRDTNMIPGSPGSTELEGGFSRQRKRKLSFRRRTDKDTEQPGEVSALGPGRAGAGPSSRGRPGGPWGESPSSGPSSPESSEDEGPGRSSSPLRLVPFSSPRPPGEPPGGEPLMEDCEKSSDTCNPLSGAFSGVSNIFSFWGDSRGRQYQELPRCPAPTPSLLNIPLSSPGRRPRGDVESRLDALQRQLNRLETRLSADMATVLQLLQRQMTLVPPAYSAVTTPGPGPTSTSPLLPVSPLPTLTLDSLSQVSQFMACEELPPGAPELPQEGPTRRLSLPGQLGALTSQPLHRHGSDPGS", "experiment": "primary screen, population patch clamp on CHO cells stably expressing hERG", "units": {"hERG current change (%, negative = inhibition) at 1uM": "%"}, "values": [{"smiles": "CCOC(=O)/C(C#N)=C/c1c(N2CCN(c3ccc(OC)cc3)CC2)nc2c(C)cccn2c1=O", "hERG current change (%, negative = inhibition) at 1uM": 11.3}, {"smiles": "Cc1ccc(NC(=O)C(C)SCc2ccccc2)cc1", "note": "(stereo not shown)", "hERG current change (%, negative = inhibition) at 1uM": 14.3}, {"smiles": "O=[N+]([O-])c1ccccc1OCCCCN1CCCCC1", "hERG current change (%, negative = inhibition) at 1uM": -16.3}, {"smiles": "O=c1c2c3c(sc2ncn1/N=C/c1ccccc1)CCCC3", "hERG current change (%, negative = inhibition) at 1uM": 6.71}, {"smiles": "COCc1cc(CN2CCN(CCc3ccccc3)C(CCO)C2)ccc1OC", "note": "(stereo not shown)", "hERG current change (%, negative = inhibition) at 1uM": -32.3}, {"smiles": "CCOC(=O)C1=C(C)NC2=C(C1c1ccc([N+](=O)[O-])cc1)S(=O)(=O)c1ccccc12", "note": "(stereo not shown)", "hERG current change (%, negative = inhibition) at 1uM": 4.23}, {"smiles": "Cc1nc(SCC(=O)NCc2cccs2)nc(C)c1C", "hERG current change (%, negative = inhibition) at 1uM": 6.32}, {"smiles": "CC(C)(C)c1ccc(OCC(O)CN(CCO)CC(O)Cn2ccc3ccccc32)cc1", "note": "(stereo not shown)", "hERG current change (%, negative = inhibition) at 1uM": 7.37}, {"smiles": "Cn1nnnc1SCC(=O)Nc1cccc([N+](=O)[O-])c1", "hERG current change (%, negative = inhibition) at 1uM": 12.8}, {"smiles": "CCOC(=O)c1cc(C(=O)Nc2ccc(C)c(F)c2)nn1C", "hERG current change (%, negative = inhibition) at 1uM": 7.7}, {"smiles": "Cc1n[nH]c(=S)n1Cc1ccccc1", "hERG current change (%, negative = inhibition) at 1uM": 11.8}, {"smiles": "COc1ccccc1-c1ccc(/C=C2/C=C(CC(C)C)OC2=O)o1", "hERG current change (%, negative = inhibition) at 1uM": 13.9}, {"smiles": "NCCN=C1NS(=O)(=O)c2ccccc21", "hERG current change (%, negative = inhibition) at 1uM": 13.6}, {"smiles": "COc1ccc(Cl)cc1NC(=S)NC(=O)c1ccco1", "hERG current change (%, negative = inhibition) at 1uM": -5.93}, {"smiles": "COc1ccc(-c2cc(C(=O)N3CCN(S(=O)(=O)c4ccc(C)cc4)CC3)[nH]n2)cc1", "hERG current change (%, negative = inhibition) at 1uM": 2.03}, {"smiles": "Nc1nonc1-c1nc2ccccc2n1CC(=O)N1CCN(c2ccc(F)cc2)CC1", "hERG current change (%, negative = inhibition) at 1uM": -0.994}, {"smiles": "O=C(COc1ccccc1)NNc1nc2c(F)cccc2s1", "hERG current change (%, negative = inhibition) at 1uM": 4.03}, {"smiles": "Cc1cccc(NC(=O)CO/N=C/c2ccc3c(c2)OCO3)c1", "hERG current change (%, negative = inhibition) at 1uM": 10.8}, {"smiles": "Cc1cc2oc(=O)cc(Cn3nnc(-c4ccc(Cl)cc4)n3)c2cc1C(C)C", "hERG current change (%, negative = inhibition) at 1uM": 12}, {"smiles": "Cc1nc(SCc2ccccc2C#N)n[nH]1", "hERG current change (%, negative = inhibition) at 1uM": 19.3}, {"smiles": "CC(C)(C)c1ccc(C(=O)NCCC(=O)Nc2cc(Cl)ccc2N2CCOCC2)cc1", "hERG current change (%, negative = inhibition) at 1uM": 12.9}, {"smiles": "CCCCc1nnc(NC(=O)C(C)Sc2nc(C)cc(=O)[nH]2)s1", "note": "(stereo not shown)", "hERG current change (%, negative = inhibition) at 1uM": -3.18}, {"smiles": "Cc1cc(=O)n2nc(N3CCC(C(=O)Nc4cccc(Cl)c4C)CC3)sc2n1", "hERG current change (%, negative = inhibition) at 1uM": 9.7}, {"smiles": "CC1CCN(c2cc(N3CCOCC3)c([N+](=O)[O-])cc2F)CC1", "hERG current change (%, negative = inhibition) at 1uM": 11.1}, {"smiles": "C[N+](C)(C)CCCN1C(=O)CCCC1=O.[I-]", "hERG current change (%, negative = inhibition) at 1uM": 15.5}, {"smiles": "CCCNC(=O)COCc1cc(-c2ccc3c(c2)OCO3)on1", "hERG current change (%, negative = inhibition) at 1uM": 13.9}, {"smiles": "Cl.Fc1ccc(COc2cccc(CNCc3ccncc3)c2)cc1", "hERG current change (%, negative = inhibition) at 1uM": -1.04}, {"smiles": "Cl.Cn1c(=O)c2c(nc(N3CCOCC3)n2CCCNC2=NCCCCC2)n(C)c1=O", "hERG current change (%, negative = inhibition) at 1uM": 14.6}, {"smiles": "CN(C)c1ccc(/C=N/NC(=O)c2ccccn2)cc1", "hERG current change (%, negative = inhibition) at 1uM": 15.3}, {"smiles": "COc1ccc(CCNC(=O)CCn2c(=O)oc3ccccc32)cc1OC", "hERG current change (%, negative = inhibition) at 1uM": 10.8}, {"smiles": "O=C(NC1CCNCC1)C1CC1", "hERG current change (%, negative = inhibition) at 1uM": 16}, {"smiles": "Cc1ccccc1C(=O)c1cccn1CC(=O)NCC1CCCO1", "note": "(stereo not shown)", "hERG current change (%, negative = inhibition) at 1uM": 3.49}, {"smiles": "Cc1cc(C)c2sc(N(CCN(C)C)C(=O)c3cc(Cl)sc3Cl)nc2c1.Cl", "hERG current change (%, negative = inhibition) at 1uM": 8.21}, {"smiles": "CCCC(=O)c1ccc(N2CCCCC2)c(F)c1", "hERG current change (%, negative = inhibition) at 1uM": 14.5}, {"smiles": "CCN(CC)S(=O)(=O)c1cc(F)ccc1OC", "hERG current change (%, negative = inhibition) at 1uM": -0.995}, {"smiles": "O=C1CC2(CCCCC2)Oc2ccc(Cl)cc21", "hERG current change (%, negative = inhibition) at 1uM": 3.55}, {"smiles": "CCc1cc(OCCN(C)C)ccc1Cl.O=C(O)C(=O)O", "hERG current change (%, negative = inhibition) at 1uM": 9.9}, {"smiles": "CCCCn1c(SCC(=O)NC(=O)Cc2ccccc2)nc2ccccc2c1=O", "hERG current change (%, negative = inhibition) at 1uM": 9.52}, {"smiles": "Cc1ccn2cc(CCNS(=O)(=O)c3ccc4c(c3)OCCO4)nc2c1", "hERG current change (%, negative = inhibition) at 1uM": 9.15}, {"smiles": "COC(=O)c1[nH]c2cc(C)ccc2c1NC(=O)CN1CCN(c2ccccc2OC)CC1", "hERG current change (%, negative = inhibition) at 1uM": -0.715}, {"smiles": "O=C(NCCc1nc2ccccc2[nH]1)c1ccc(Cl)c([N+](=O)[O-])c1", "hERG current change (%, negative = inhibition) at 1uM": -5.13}, {"smiles": "CCN1CCCC1CNC(=O)C(=O)Nc1ccc(OC)cc1", "note": "(stereo not shown)", "hERG current change (%, negative = inhibition) at 1uM": 10.3}, {"smiles": "COc1ccccc1CNC(=O)C1CC(c2ccc([N+](=O)[O-])cc2)=NO1", "note": "(stereo not shown)", "hERG current change (%, negative = inhibition) at 1uM": 7.68}, {"smiles": "O=C(NCc1ccccn1)C(=O)NCc1ccccn1", "hERG current change (%, negative = inhibition) at 1uM": 8.97}, {"smiles": "COc1ccc(-c2nc3n(n2)C(c2ccccc2)C2=C(CCCC2=O)N3)cc1OC", "note": "(stereo not shown)", "hERG current change (%, negative = inhibition) at 1uM": 2.1}, {"smiles": "CCOC(=O)/C(C#N)=C\\c1cccnc1", "hERG current change (%, negative = inhibition) at 1uM": 12.9}]}]}
